Lines with a small IC50 respond at low doses; where the fit passes the top or lowest dose, that dose stands as a limit. The AUC spans the tested range (256-fold, ending at the top dose) of the same fit; it is 1 without any effect and falls as sensitivity rises.
Compound: CC[C@H](Nc1ncnc2[nH]cnc12)c1nc2cccc(F)c2c(=O)n1-c1ccccc1 [CAL-101]
Test: Viability of human cancer cell lines after 72 h of drug (GDSC screen)
Method: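 Human cancer cell lines in 384-well plates, medium with 10% serum, drug for 72 h over a 256-fold dose range (nine 2-fold or five 4-fold steps up to the top dose). Adherent lines were fixed and stained with the nucleic acid dye Syto60, suspension lines read with resazurin; signal relative to control wells, capped at 0 and 100%. One two-parameter sigmoid per drug and line, fitted in a mixed model over all curves with the slope shared within a line.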

Row | Cell Line | AUC | IC50
1 | JiyoyeP-2003 (Burkitt lymphoma, suspension, top dose 20 µM) | 0.991 | > 20 µM
2 | K2 (melanoma, adherent, top dose 20 µM) | 0.975 | > 20 µM
3 | K5 (thyroid, adherent, top dose 20 µM) | 0.944 | > 20 µM
4 | KALS-1 (glioma, adherent, top dose 20 µM) | 0.879 | > 20 µM
5 | KARPAS-45 (lymphoblastic leukaemia, suspension, top dose 20 µM) | 0.684 | 3.7 µM
6 | KARPAS-299 (anaplastic large cell lymphoma, suspension, top dose 20 µM) | 0.983 | > 20 µM
7 | KARPAS-620 (haematopoietic neoplasm, suspension, top dose 20 µM) | 0.745 | 5.53 µM
8 | KASUMI-1 (acute myeloid leukaemia, suspension, top dose 20 µM) | 0.633 | 2.92 µM
9 | KCL-22 (chronic myeloid leukaemia, suspension, top dose 20 µM) | 0.966 | > 20 µM
10 | KE-37 (lymphoblastic leukaemia, suspension, top dose 20 µM) | 0.644 | 2.82 µM
11 | KELLY (neuroblastoma, adherent, top dose 20 µM) | 0.989 | > 20 µM
12 | KG-1 (acute myeloid leukaemia, suspension, top dose 20 µM) | 0.936 | > 20 µM
13 | KGN (ovary, adherent, top dose 20 µM) | 0.854 | > 20 µM
14 | KINGS-1 (glioma, adherent, top dose 20 µM) | 0.946 | > 20 µM
15 | KLE (endometrium, adherent, top dose 20 µM) | 0.893 | > 20 µM
16 | KM12 (large intestine, adherent, top dose 20 µM) | 0.972 | > 20 µM
17 | KM-H2 (Hodgkin lymphoma, suspension, top dose 20 µM) | 0.965 | > 20 µM
18 | KMH-2 (thyroid, adherent, top dose 20 µM) | 0.97 | > 20 µM
19 | KMOE-2 (acute myeloid leukaemia, suspension, top dose 20 µM) | 0.934 | > 20 µM
20 | KMRC-1 (kidney, adherent, top dose 20 µM) | 0.98 | > 20 µM
21 | KMRC-20 (kidney, adherent, top dose 20 µM) | 0.984 | > 20 µM

Row | Cell Line | AUC | IC50
22 | KMS-11 (myeloma, suspension, top dose 20 µM) | 0.991 | > 20 µM
23 | KMS-12-BM (myeloma, suspension, top dose 20 µM) | 0.913 | > 20 µM
24 | KNS-42 (glioma, adherent, top dose 20 µM) | 0.98 | > 20 µM
25 | KNS-81-FD (glioma, adherent, top dose 20 µM) | 0.959 | > 20 µM
26 | KON (head and neck, adherent, top dose 20 µM) | 0.985 | > 20 µM
27 | KOPN-8 (B-cell leukaemia, suspension, top dose 20 µM) | 0.925 | > 20 µM
28 | KP-1N (pancreas, adherent, top dose 10.24 µM) | 0.896 | > 10.2 µM
29 | KP-2 (pancreas, adherent, top dose 20 µM) | 0.933 | > 20 µM
30 | KP-3 (pancreas, adherent, top dose 20 µM) | 0.932 | > 20 µM
31 | KP-4 (pancreas, adherent, top dose 20 µM) | 0.911 | > 20 µM
32 | KP-N-YN (neuroblastoma, adherent, top dose 20 µM) | 0.986 | > 20 µM
33 | KP-N-YS (neuroblastoma, adherent, top dose 20 µM) | 0.922 | > 20 µM
34 | KS-1 (glioma, adherent, top dose 20 µM) | 0.902 | > 20 µM
35 | KU812 (chronic myeloid leukaemia, suspension, top dose 20 µM) | 0.41 | 0.724 µM
36 | KU-19-19 (bladder, adherent, top dose 20 µM) | 0.986 | > 20 µM
37 | KURAMOCHI (ovary, adherent, top dose 20 µM) | 0.902 | > 20 µM
38 | KY821 (leukaemia, suspension, top dose 20 µM) | 0.985 | > 20 µM
39 | KYAE-1 (oesophagus, suspension, top dose 20 µM) | 0.852 | 18.1 µM
40 | KYM-1 (rhabdomyosarcoma, adherent, top dose 20 µM) | 0.991 | > 20 µM
41 | KYSE-50 (oesophagus, adherent, top dose 20 µM) | 0.901 | > 20 µM
42 | KYSE-70 (oesophagus, adherent, top dose 20 µM) | 0.975 | > 20 µM

Row | Cell Line | AUC | IC50
43 | KYSE-140 (oesophagus, adherent, top dose 20 µM) | 0.962 | > 20 µM
44 | KYSE-150 (oesophagus, adherent, top dose 20 µM) | 0.985 | > 20 µM
45 | KYSE-180 (oesophagus, adherent, top dose 20 µM) | 0.966 | > 20 µM
46 | KYSE-220 (oesophagus, adherent, top dose 20 µM) | 0.924 | > 20 µM
47 | KYSE-270 (oesophagus, adherent, top dose 20 µM) | 0.991 | > 20 µM
48 | KYSE-410 (oesophagus, adherent, top dose 20 µM) | 0.965 | > 20 µM
49 | KYSE-450 (oesophagus, adherent, top dose 20 µM) | 0.883 | 19.4 µM
50 | KYSE-510 (oesophagus, adherent, top dose 20 µM) | 0.981 | > 20 µM
51 | KYSE-520 (oesophagus, adherent, top dose 20 µM) | 0.922 | > 20 µM
52 | L-363 (myeloma, suspension, top dose 20 µM) | 0.975 | > 20 µM
53 | L-428 (Hodgkin lymphoma, suspension, top dose 20 µM) | 0.981 | > 20 µM
54 | L-540 (Hodgkin lymphoma, suspension, top dose 20 µM) | 0.985 | > 20 µM
55 | L-1236 (Hodgkin lymphoma, suspension, top dose 20 µM) | 0.981 | > 20 µM
56 | LAMA-84 (chronic myeloid leukaemia, suspension, top dose 20 µM) | 0.939 | > 20 µM
57 | LAN-6 (neuroblastoma, adherent, top dose 20 µM) | 0.975 | > 20 µM
58 | LB373-MEL-D (melanoma, adherent, top dose 20 µM) | 0.981 | > 20 µM
59 | LB647-SCLC (small cell lung carcinoma, semi-adherent, top dose 20 µM) | 0.91 | > 20 µM
60 | LB771-HNC (head and neck, adherent, top dose 20 µM) | 0.958 | > 20 µM
61 | LB831-BLC (bladder, adherent, top dose 20 µM) | 0.978 | > 20 µM
62 | LB996-RCC (kidney, adherent, top dose 20 µM) | 0.982 | > 20 µM
63 | LB1047-RCC (kidney, adherent, top dose 20 µM) | 0.959 | > 20 µM

Row | Cell Line | AUC | IC50
64 | LB2241-RCC (kidney, adherent, top dose 20 µM) | 0.982 | > 20 µM
65 | LB2518-MEL (melanoma, adherent, top dose 20 µM) | 0.975 | > 20 µM
66 | LC4-1 (lymphoblastic leukaemia, suspension, top dose 20 µM) | 0.706 | 5.1 µM
67 | LC-1-sq (lung squamous cell carcinoma, adherent, top dose 20 µM) | 0.944 | > 20 µM
68 | LC-2-ad (lung adenocarcinoma, adherent, top dose 20 µM) | 0.928 | > 20 µM
69 | LCLC-97TM1 (large cell lung carcinoma, adherent, top dose 20 µM) | 0.914 | > 20 µM
70 | LCLC-103H (large cell lung carcinoma, adherent, top dose 20 µM) | 0.941 | > 20 µM
71 | LK-2 (lung squamous cell carcinoma, adherent, top dose 20 µM) | 0.986 | > 20 µM
72 | LN-18 (glioma, adherent, top dose 20 µM) | 0.994 | > 20 µM
73 | LN-405 (glioma, adherent, top dose 20 µM) | 0.922 | > 20 µM
74 | LNCaP-Clone-FGC (prostate, adherent, top dose 20 µM) | 0.708 | 5.3 µM
75 | LNZTA3WT4 (glioma, adherent, top dose 20 µM) | 0.975 | > 20 µM
76 | LOU-NH91 (lung squamous cell carcinoma, adherent, top dose 20 µM) | 0.976 | > 20 µM
77 | LOXIMVI (melanoma, semi-adherent, top dose 20 µM) | 0.986 | > 20 µM
78 | LP-1 (myeloma, suspension, top dose 20 µM) | 0.948 | > 20 µM
79 | LS-123 (large intestine, adherent, top dose 20 µM) | 0.871 | > 20 µM
80 | LS-180 (large intestine, adherent, top dose 20 µM) | 0.973 | > 20 µM
81 | LS-411N (large intestine, adherent, top dose 20 µM) | 0.951 | > 20 µM
